{"source": "paper PMC12136788", "binders": {"B1": {"name": "chr6:107883018:107883119:-|CDS|ENSG00000025796|unk|FALSE|bound_elsewhere (ssRNA)", "RNA": "GGGAGUUCUACAGUCCGACGAUCAAGGAAGAUGAAGAAGAAGUUUCAGAUAAGGGCAGUGAUUCUGAAGAAGAAGAAACCAAUAGAGAUUCCCAAAGUGAGAAAGAUGAUGGUAGUGACAGAGACUCUGAUAGAGAGCAAGAUCAACAGAGGAUUGAGCAUCA"}, "B2": {"name": "chr22:28629602:28629705:-|CDS|ENSG00000100154|unk|total|mutant (ssRNA)", "RNA": "GGGAGUUCUACAGUCCGACGAUCAUUGUUCUGUAUAAUGAAGCCCUGGCUGUUGACCCUCAGAACUGCAUCUUAUACAGCAACCGAUCUGCAGCCUACAUGAAAAUCCAGCAGUAUGACAAGGCACUGGAUGAUGCAAUCAAACAACAGAGGAUUGAGCAUCA"}, "B3": {"name": "ENSG00000124766:be:win_2251|3pUTR|ENSG00000124766|bound_else_gene|NA|bound_elsewhere_windowed (ssRNA)", "RNA": "GGGAGUUCUACAGUCCGACGAUCACGGUCAAACUGAAAUGGAUUUGCACGUUGGGGAGCUGGCGGCGGCGGCUGCUGGGCCUCCGCCUUCUUUUCUACGUGAAAUCAGUGAGGUGAGACUUCCCAGACCCCGGAGGCGUGGAGCAACAGAGGAUUGAGCAUCA"}, "B4": {"name": "chr7:50445662:50445763:-|CDS|ENSG00000132436|msi1|total|mutant (ssRNA)", "RNA": "GGGAGUUCUACAGUCCGACGAUCGUUAUCUCAACGGGGAGAUGGUGAGCAUGAAUCUUCCCGAAGGAUAAAAACAGAAUUUUCCGUUCAAUCCGAUGGAGCAACAACAUCUUCUGAAGAUCGUAUCCCCGUGGUGGGAGCAACCAACAGAGGAUUGAGCAUCA"}, "B5": {"name": "chr10:24620413:24620514:-|CDS|ENSG00000107863|msi1|total|mutant (ssRNA)", "RNA": "GGGAGUUCUACAGUCCGACGAUCGUGCUAAUGAAGUAUUGUCCAAGAAGUGCAUCUCAAGGAGCACUGACGUCUCCAUCUGUCCGUUUCCGUAAUCACCGAACUCGUUCAUGGGAUUAUAUUGAGGGACAGGAUGAAACCUUACAACAGAGGAUUGAGCAUCA"}, "B6": {"name": "chr2:85327303:85327429:-|CDS|ENSG00000152291|msi1|total|mutant (ssRNA)", "RNA": "GGGAGUUCUACAGUCCGACGAUCACCCAAAAAGGCAGCACCCGCAAGUCGGGUUCGGAGGCGCAGACCACAAAAGACAGCACCCGUAAGUCGCAUCCGGAGCUGCAGACUCCAAAAGACAGCACUGGCAAAUCGGGUGCGGAGCAACAGAGGAUUGAGCAUCA"}, "B7": {"name": "chr1:32364632:32368550:-|three_prime_utr|ENSG00000160058|control|control|control (ssRNA)", "RNA": "GGGAGUUCUACAGUCCGACGAUCGCUCAGACCCACAACAUUGGUCAUCAGCAGGCUGCACUUUUCCUCAGUUCCAGGGUGGAUAGAGGGUCAAGUUCUUGACCUUAGCUCUGUAUCAAAAUUGCCUGAGAAACUGCUUAAGAACAACAGAGGAUUGAGCAUCA"}, "B8": {"name": "ENSG00000138778:stop:overlap|stop_codon|ENSG00000138778|stop_codon|NA|stop_codon (ssRNA)", "RNA": "GGGAGUUCUACAGUCCGACGAUCCUCAGCCAGGUCCUUGGCACGCCUCCUCAGGCAAGGAUGUGCCUGAGUGCAAAACUCAGUAGACUCCUCUUUGUCACUUCUCUGGAGAUCCAGCAUUCCUUAUUUGGAAAUGACUUUGUUCAACAGAGGAUUGAGCAUCA"}, "B9": {"name": "chr1:108700024:108700125:+|3pUTR|ENSG00000134186|msi1|FALSE|bound_elsewhere (ssRNA)", "RNA": "GGGAGUUCUACAGUCCGACGAUCCACAUUGAAUCCUAUAAAUGAUUAAAUCUGCUUUUUUCCCCCACGUUGAGAUUGUGCAGUAGUUCGCACUCCUCAAGCUCUCCCUGUAGGCUGCAUUUUCAUUUCCUCUUUCGUGUAGGGCAACAGAGGAUUGAGCAUCA"}, "B10": {"name": "chr1:64832709:64832810:+|3pUTR|ENSG00000162437|msi1|total|mutant (ssRNA)", "RNA": "GGGAGUUCUACAGUCCGACGAUCACAGCCCGAAAGUUUAAGGUAAUUUCUAAGUAUACUACCUAUAAGUAACUGAUAAGAAUCCGGCAUCAUUCAGUGAUACCGCAGAUGACUAAUGGGUUUUUCAGGCCCUGCACUUCUCUUCAACAGAGGAUUGAGCAUCA"}, "B11": {"name": "chr8:38210141:38210254:+|CDS|ENSG00000156735|unk|FALSE|unique (ssRNA)", "RNA": "GGGAGUUCUACAGUCCGACGAUCGCUGAGCCUCAGCUGUAUGGUAAUGCCACCAGUGACCAUCCCAACAAUCAAGAUCAAAGUAGCAGUCUUCCUGAAGAAUGUGUACCUUCAGAUGAAAGUACUCCUCCGAGUAUUAAAAAACAACAGAGGAUUGAGCAUCA"}, "B12": {"name": "chr11:10511672:10514915:-|three_prime_utr|ENSG00000110315|control|control|control (ssRNA)", "RNA": "GGGAGUUCUACAGUCCGACGAUCGAAGUGAAAGUCUUCUGUUGCUAUUGUGGGCUCAAAUAUUUGGUCAUGGGGGAAGAAUGUAGGGUUGUGGCACUGGCACAGACACAGGAAAAUCCAUUUUCCCCACUCUUUUAUUUUUGCCAACAGAGGAUUGAGCAUCA"}, "B13": {"name": "chr4:173322470:173322571:+|3pUTR|ENSG00000109586|msi1|total|mutant (ssRNA)", "RNA": "GGGAGUUCUACAGUCCGACGAUCUGCCGCAUUCACUCCCUUACCUACUGGCAUUCCCAGUGCCCUCUGUCCAUACCUACUUCCCGGAUUGCAAAGGAGUCUUCCAACCCGAGAAAAAUUGUCCACUGACAUUUGGGAUUUACUCAACAGAGGAUUGAGCAUCA"}, "B14": {"name": "ENSG00000198589:be:win_7151|CDS|ENSG00000198589|bound_else_gene|NA|bound_elsewhere_windowed (ssRNA)", "RNA": "GGGAGUUCUACAGUCCGACGAUCCUUGGGCCAAAACCUCAGAAGAAUUUGUUCACAUAAACAGAUUGGCCCUGGAGAGUGAAUUUGUUUCCUGCCAGCUUCACCAAUGGAUUGAUCUCAUUUUUGGCUAUAAACAGCAAGGACCAACAGAGGAUUGAGCAUCA"}}, "note": "The list shows a part of the results.", "data": [{"molecular_target": "MSI1 full-length (mouse, UniProt Q61474 1-362)", "sequence (Q61474 whole entry)": "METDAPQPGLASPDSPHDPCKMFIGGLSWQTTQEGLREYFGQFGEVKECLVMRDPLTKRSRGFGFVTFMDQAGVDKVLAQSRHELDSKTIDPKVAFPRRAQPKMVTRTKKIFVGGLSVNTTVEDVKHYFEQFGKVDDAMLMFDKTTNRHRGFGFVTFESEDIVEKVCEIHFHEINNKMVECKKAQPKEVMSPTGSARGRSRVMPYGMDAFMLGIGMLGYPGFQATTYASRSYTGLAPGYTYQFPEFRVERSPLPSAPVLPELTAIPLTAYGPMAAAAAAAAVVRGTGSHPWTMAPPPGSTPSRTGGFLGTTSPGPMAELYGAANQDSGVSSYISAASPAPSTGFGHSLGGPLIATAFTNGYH", "assay": "nsRBNS (natural sequence RNA bind-n-seq); RBNS binding buffer (assumed for nsRBNS): 25 mM Tris pH 7.5, 150 mM KCl, 3 mM MgCl2, 0.01% Triton X-100, 500 ug/ml BSA, 20 U/ml SUPERase-In, 4 C; UNK is unkempt and MSI1 is Musashi-1; names of the RNAs are library labels; protein concentration not given here; high values mean tight binding", "units": {"binding signal": "enrichment R"}, "values": [{"binder": "B1", "binding signal": 7.31}, {"binder": "B2", "binding signal": 0.294}, {"binder": "B3", "binding signal": 0.463}, {"binder": "B4", "binding signal": 0.332}, {"binder": "B5", "binding signal": 0.238}, {"binder": "B6", "binding signal": 0.393}, {"binder": "B7", "binding signal": 0.437}, {"binder": "B8", "binding signal": 0.399}, {"binder": "B9", "binding signal": 1.7}, {"binder": "B10", "binding signal": 0.266}, {"binder": "B11", "binding signal": 0.453}, {"binder": "B12", "binding signal": 0.486}, {"binder": "B13", "binding signal": 0.767}, {"binder": "B14", "binding signal": 0.335}]}]}
